The whole screen tested about 48,000 compounds, of which about 120 (0.25%) were called active. Roughly 4% stayed inconclusive and do not appear here. Calls follow the shape of the dose curve; as a rule, active = well fitted activation curve with a large enough effect; inconclusive = small, poorly fitted or top-dose-only effect, or another doubt; inactive = no such curve, though single readings can be large or run the other way. Some of the results follow.

The assay can be described thus: Primary qHTS for Identification of Small Molecule Activators of Huntingtin-Antisense Promoter Activity. Also: nearly all actives have a fitted effect of over 55% in size. The settings on record: HEK293 HTT-AS promoter firefly luciferase reporter, 24 h; series mostly up to 57.5 µM; activity change, positive = activation: at the top concentration. The essentials:
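Quantitative HTS used concentration series of up to 57.5 uM final on HEK293 luciferase reporter cells, 24 h at 37 degrees C. Readout was Dual-Glo firefly luminescence.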
(In general: qHTS replaces the single test concentration by a dilution series.)
For `CCC(=O)Nc1ccccc1C(=O)OCc1cc(=O)n2cc(C)sc2n1`, the “activity change, positive = activation” value was inactive: -12.2%.

As for `COc1ccc(OC)c(NC(=O)Cn2c(CCC(=O)O)ccc2-c2ccccc2)c1`, the “activity change, positive = activation” value was inactive: -11.5%.

Regarding `CC(C)CCN1C(=O)c2ccccc2CC1(C)C(=O)NC1CCCCC1` (stereo unspecified), the “activity change, positive = activation” value was inactive: -0.676%.

As for `CC1CC(=O)N(CC(=O)Nc2ccc(OC(F)(F)F)cc2)c2ccccc2S1` (stereo unspecified), the “activity change, positive = activation” value is inactive: -24.8%.

Regarding `CCCN1CCN(C(=O)Cn2ncc3c4ccccc4n(Cc4cccc(Cl)c4)c3c2=O)CC1`, the “activity change, positive = activation” value is inactive: -14.2%.

In the case of `O=C(Nc1c(C(=O)N2CCN(c3ccccc3)CC2)oc2ccccc12)c1ccccc1F`, the “activity change, positive = activation” value was inactive: -18.3%.

Consider `Cc1cccc(N(C)C(=O)c2cc3c(=O)oc4ccc(C)cc4c3s2)c1`, for which the “activity change, positive = activation” value was inactive: -2.63%.

For `CCOc1ccc(-n2nc3ccc(NC(=O)c4ccc(C)cc4C)cc3n2)cc1`, the “activity change, positive = activation” value is inactive: -13.6%.

As to `Cc1ccc(CCNC(=O)c2cc3cc(S(=O)(=O)N4CCCCC4)ccc3n2C)cc1`, the “activity change, positive = activation” value is inactive: -32.7%.

In the case of `O=C(NCC(c1ccc2c(c1)OCO2)N1CCN(c2ccccc2F)CC1)c1ccccc1F` (stereo unspecified), the “activity change, positive = activation” value is inactive: -9.9%.

Regarding `COc1ccc(C2CC(=O)N(CC(=O)Nc3ccc(C(C)=O)cc3)c3ccccc3S2)cc1OC` (stereo unspecified), the “activity change, positive = activation” value was inactive: -42.7%.

For the compound `CCOC(=O)c1c(C)oc2nc(C)nc(N3CCN(c4cccc(C(F)(F)F)c4)CC3)c12`, the “activity change, positive = activation” value was inactive: -64.9%.

On to `CCOC(=O)c1c(NC(=O)/C=C/c2ccc(Cl)cc2)sc2c1CCC(C)C2` (stereo unspecified), for which the “activity change, positive = activation” value is inactive: -14.5%.

In the case of `COc1ccc(CCC(=O)NC2CC(=O)N(c3ccccc3)C2)cc1` (stereo unspecified), the “activity change, positive = activation” value is inactive: -13.1%.

With `Cc1ccccc1C(=O)n1nc(-c2ccco2)nc1NCc1cccs1`, the “activity change, positive = activation” value was inactive: 14.8%.

For the compound `Cc1ccc2[nH]c(CSc3nnc(NC(=O)COc4ccc(F)cc4)s3)cc(=O)c2c1`, the “activity change, positive = activation” value was inactive: -16.5%.

In the case of `COc1cc(Cl)c(C)cc1NC(=O)c1nn(C)c2c1CSc1ccccc1-2`, the “activity change, positive = activation” value is inactive: -1.96%.

Regarding `O=C(CCCCn1c(=O)c2ccccc2n(Cc2cccc(Cl)c2)c1=O)NCc1ccc2c(c1)OCO2`, the “activity change, positive = activation” value was inactive: -6.04%.

Take `COc1ccc(CNC(=O)c2cc(-c3ccc(Cl)cc3)n[nH]2)cc1`: the “activity change, positive = activation” value is inactive: -6.66%.

In the case of `O=C(NCc1nc(-c2ccccc2)no1)c1ccco1`, the “activity change, positive = activation” value was inactive: -3.06%.

`COc1ccc(CNC(=O)Cn2ncc3c(=O)oc4ccc(C)cc4c32)c(OC)c1`: the “activity change, positive = activation” value was inactive: -14%.

For `Cc1cc(=O)n2[nH]c(NC(=O)c3cccc(Cl)c3)nc2n1`, the “activity change, positive = activation” value was inactive: -11.1%.

With `CC1=Nc2cc(C(=O)N3CCCCC3)ccc2Sc2ccc(C)cc21`, the “activity change, positive = activation” value is inactive: -10.1%.

Consider `Cc1c(C(=O)NCc2ccc(OC(C)C)cc2)sc2ncnc(N(C)C3CCCCC3)c12`, for which the “activity change, positive = activation” value is inactive: -23%.

As for `COc1ccccc1CCNC(=O)CCCn1c(=O)c2cccn2c2cccnc21`, the “activity change, positive = activation” value is inactive: -1.8%.

Consider `COc1ccc(-c2nc(CN3CCC(C(=O)NCc4ccc(F)cc4)CC3)c(C)o2)cc1OC`, for which the “activity change, positive = activation” value was inactive: -14%.

With `CCCC(=O)Nc1nnc(SCc2cc(=O)n3cccc(C)c3n2)s1`, the “activity change, positive = activation” value was inactive: -6.48%.

With `CC#C[C@]1(O)CC[C@H]2[C@@H]3CCC4=CC(=O)CCC4=C3[C@@H](c3ccc(N(C)C)cc3)C[C@@]21C`, the activity change, positive = activation entry was “inactive”.

As to `O=C(CSc1nccn1Cc1ccc(Cl)cc1)Nc1ccc2c(c1)OCO2`, the “activity change, positive = activation” value was inactive: -13.1%.

Take `COc1ccc(NC(=O)C2CCCN(S(=O)(=O)c3c(C)[nH]c(=O)[nH]c3=O)C2)cc1Cl` (stereo unspecified): the “activity change, positive = activation” value was inactive: -3.35%.

Regarding `O=C(Nc1ccc(Cl)c(C(F)(F)F)c1)C(Cc1ccccc1)NS(=O)(=O)c1cccc2nsnc12` (stereo unspecified), the “activity change, positive = activation” value was inactive: -27.7%.

For `CCc1cc2c(cc3c(=O)n(CC(=O)NCCc4ccccc4)ncn32)s1`, the “activity change, positive = activation” value was inactive: -0.58%.

Consider `COc1ccc2oc(=O)c(-c3nc(-c4ccc(C)c(C)c4)cs3)cc2c1`, for which the “activity change, positive = activation” value is inactive: 9.84%.

Take `CCC(Sc1nc2ncccc2o1)C(=O)Nc1cccc(C)c1` (stereo unspecified): the “activity change, positive = activation” value is inactive: 8.74%.

For the compound `Cc1ccc(C)c(NC(=O)c2ccc3c(c2)CCN3S(=O)(=O)c2ccccc2)c1`, the “activity change, positive = activation” value was inactive: -11.9%.

With `CCc1cccc(CC)c1NC(=O)N1Cc2[nH]nc(NC(=O)c3ccc(N4CCN(C)CC4)cc3)c2C1`, the “activity change, positive = activation” value is inactive: -16.1%.

Regarding `C[N+]1(CC2COC(c3ccccc3)(c3ccccc3)O2)CCCCC1` (stereo unspecified), the “activity change, positive = activation” value is inactive: -9.82% [at 25.1 µM, percent change from vehicle, -100% = no light].

Consider `CCc1ccc(C2c3c(-c4ccccc4)n[nH]c3C(=O)N2c2ccc(C(=O)O)cc2)cc1` (stereo unspecified), for which the “activity change, positive = activation” value is inactive: -22.8%.

On to `C[C@H]1NCc2cc(-c3ccc4c(=O)c(C(=O)O)cn(C5CC5)c4c3OC(F)F)ccc21`, for which the “activity change, positive = activation” value was inactive: -7.28% [at 25.1 µM, percent change from vehicle, -100% = no light].

With `COc1cccc(-n2cc(C(=O)NCc3ccc(C)cc3)c3ccccc3c2=O)c1`, the “activity change, positive = activation” value was inactive: -18.4%.

For the compound `O=C(CN1N=C(c2ccccc2)CCC1=O)NCc1ccc(F)cc1Cl`, the “activity change, positive = activation” value was inactive: -1.5%.

With `CCn1cc(C(=O)NCCc2ccccc2)c(=O)c2cc(S(=O)(=O)N3CCc4ccccc4C3)ccc21`, the “activity change, positive = activation” value was inactive: -19.7%.

Turning to `CCCn1c2ccccc2c2cnn(CC(=O)NCCCN(Cc3ccccc3)C(C)C)c(=O)c21`, the “activity change, positive = activation” value is inactive: -19.5%.

Take `CCCN(CCC)CCCNC(=O)c1cn(C)c2ccc(S(=O)(=O)N3CCOCC3)cc2c1=O`: the “activity change, positive = activation” value is inactive: -5.32%.

Take `O=S(=O)(NCCc1csc2nc(-c3ccc(Cl)cc3)nn12)c1ccc2c(c1)OCCO2`: the “activity change, positive = activation” value was inactive: -30.7%.

Take `COc1ccc(-c2cc(C)no2)cc1S(=O)(=O)N1CCOc2ccc(Cl)cc21`: the “activity change, positive = activation” value was inactive: -18.7%.

As to `COC(=O)c1ccc2c(=O)n(CCCCCC(=O)NCc3ccc(OC)cc3)c(=O)[nH]c2c1`, the “activity change, positive = activation” value is inactive: -9.31%.

`COc1ccc(Nc2cc(C(=O)NCCCN(C)C3CCCCC3)c3ccccc3n2)c(OC)c1`: the “activity change, positive = activation” value was inactive: -17.4%.

In the case of `COc1ccc(CCNc2nc(SCc3cccc(F)c3)nc3ccccc23)cc1OC`, the “activity change, positive = activation” value is inactive: -18.3%.

With `CCC(C)NC(=O)CN1C(=O)c2cccnc2Oc2ccc(C)cc21` (stereo unspecified), the “activity change, positive = activation” value was inactive: -2.46%.

In the case of `CC(C)c1ccc(NC(=O)CN2C(=O)COc3ccc(S(=O)(=O)N4CCOCC4)cc32)cc1`, the “activity change, positive = activation” value is inactive: 0.448%.

Take `O=C(CSc1c2c(nc3cc(Cl)ccc13)CCCC2)N1CCN(c2ccccc2F)CC1`: the “activity change, positive = activation” value was inactive: -51.2%.

As to `COc1ccccc1NC(=O)CSc1oc(-c2ccccc2)nc1S(=O)(=O)c1ccc(C)cc1`, the “activity change, positive = activation” value is inactive: -1.01%.

For the compound `Cc1ccc2nc(-c3cccnc3)c(Nc3ccc(C(C)C)cc3)n2c1`, the “activity change, positive = activation” value was inactive: 6.88%.

Regarding `O=C(COc1ccc2ccccc2c1)NC1CC(=O)N(c2ccccc2)C1` (stereo unspecified), the “activity change, positive = activation” value was inactive: -20.6%.

Regarding `Cc1nc(-c2ccc(S(=O)(=O)N3CCN(c4cc(Cl)ccc4C)CC3)cc2)co1`, the “activity change, positive = activation” value was inactive: -21.5%.

Turning to `O=C(c1ccc(F)cc1)n1nc(-c2cccnc2)nc1NCc1ccc(F)cc1`, the “activity change, positive = activation” value is inactive: 5.39%.

Consider `O=C(NCCc1ccc(Cl)cc1)C1COc2ccccc2C1` (stereo unspecified), for which the “activity change, positive = activation” value was inactive: 31.3%.

In the case of `Cc1cn2c(=O)c(S(=O)(=O)N3CCN(c4cc(Cl)ccc4C)CC3)c(C)nc2s1`, the “activity change, positive = activation” value was inactive: -3.81%.

Take `O=C(Nc1cccc(-c2nc3cccnc3s2)c1)c1cccc(Br)c1`: the “activity change, positive = activation” value is inactive: -10.9%.

On to `CCOC(=O)c1ccc(NC(=O)c2cn(-c3ccccc3)nc2-c2ccc(OC)c(OC)c2)cc1`, for which the “activity change, positive = activation” value is inactive: -8.73%.

Values taken from PubChem BioAssay AID1508624 (National Center for Advancing Translational Sciences (NCATS), 2021).
